Where a name gives a salt, the structure may show the parent alone. ± gives the standard deviation of the averaged measurements. In all, about 3,200 compounds were measured (“nuclei count (viability) relative to DMSO”: median about 99, lowest 2% from about 16 on). The list shows a part of the results.

The test relates to U2OS. Nature of the test: nuclei count (viability) relative to DMSO (% of DMSO); higher = more viable cells. The following applies: 10 µM; 24 h. As to the method: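 Primary image-based screen in U2OS cells: compounds at 10 uM for 24 h, then a 1 h o-propargyl-puromycin (OPP) pulse, click labelling, and high-throughput microscopy. Mean cytoplasmic OPP intensity and nuclei count were normalised to DMSO wells within each plate (DMSO = 100) and averaged over triplicate plates.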
In the case of `CCNC1(C(N)=O)CCN(c2ncnc3c2nc(-c2ccccc2Cl)n3-c2ccc(Cl)cc2)CC1`, the nuclei count came out at 98.
In turn, `Nc1ccc(C(=O)O)c(O)c1` [4-aminosalicylic acid] gave a nuclei count of 103.
As to `Nc1ccc(C(=O)O)c(O)c1` [Sodium 4-Aminosalicylate], the nuclei count came to 104.
`c1ccc2sc(N3CCN(Cc4ccc5c(c4)OCO5)CC3)nc2c1` [2-[1-(4-Piperonyl)piperazinyl]benzothiazole]: the nuclei count was 111.
Turning to `O=C1Nc2ccc(Cl)cc2[C@@](C#CC2CC2)(C(F)(F)F)O1` [Efavirenz], the nuclei count was determined as 94.4.
In turn, `N#Cc1ccc(NC(=O)Nc2ccccc2Br)c2n[nH]nc12` showed a nuclei count of 96.4.
In turn, `COc1cc(CCc2cc(NC(=O)c3ccc(N4CC(C)NC(C)C4)cc3)n[nH]2)cc(OC)c1` (configuration not stated) displayed a nuclei count of 41.9 ± 6.1.
`C[C@@H]1CC[C@@]2(OC1)O[C@H]1C[C@H]3[C@@H]4CC=C5C[C@@H](O)CC[C@]5(C)[C@H]4CC[C@]3(C)[C@H]1[C@@H]2C` [Diosgenin]: the nuclei count came to 97.
Compound `Clc1ccc(C(c2ccccc2Cl)C(Cl)Cl)cc1` (configuration not stated) [Mitotane] returned a nuclei count of 102.
Compound `Clc1ccc(C(c2ccccc2Cl)C(Cl)Cl)cc1` (configuration not stated) [Mitotane (Lysodren)] showed a nuclei count of 87.9.
As for `O=C1O[C@H]([C@@H](O)CO)C(O)=C1O` [Ascorbic acid], the figure is 103 ± 2.5.
Take `Cc1cccc(C)c1OCC(=O)N[C@@H](Cc1ccccc1)[C@@H](O)C[C@H](Cc1ccccc1)NC(=O)[C@H](C(C)C)N1CCCNC1=O` [Lopinavir (ABT-378)]: the nuclei count was 101.
As for `c1ccc(-c2nn3c(c2-c2ccnc4cc(OCCN5CCOCC5)ccc24)CCC3)nc1`, the figure is 100.
As for `O=C(c1ccc(F)cc1)C1CCN(CCn2c(=S)[nH]c3ccccc3c2=O)CC1` [Altanserin hydrochloride], the figure is 88.
`O=C(O)Cn1nnc(-c2cc(N3CCC(Oc4cc(F)ccc4Br)CC3)no2)n1` displayed a nuclei count of 112.
Consider `O=C(O)c1ccccc1Nc1cccc(C(F)(F)F)c1` [Flufenamic acid], for which the nuclei count stood at 94.4 ± 4.4.
In the case of `CC[N+](C)(CC)CCC[n+]1c(-c2ccccc2)c2cc(N)ccc2c2ccc(N)cc21` [Propidium iodide], the nuclei count came to 100.
For `CCC(=O)O[C@]1(C(=O)SCF)[C@H](C)C[C@H]2[C@@H]3C[C@H](F)C4=CC(=O)C=C[C@]4(C)[C@@]3(F)[C@@H](O)C[C@@]21C` [Fluticasone propionate (Flonase, Veramyst)], the nuclei count is 109.
In the case of `CCC(=O)O[C@]1(C(=O)SCF)[C@H](C)C[C@H]2[C@@H]3C[C@H](F)C4=CC(=O)C=C[C@]4(C)[C@@]3(F)[C@@H](O)C[C@@]21C` [Fluticasone propionate], the nuclei count turned out to be 99.3 ± 7.9.
With `NS(=O)(=O)c1nn2cc(-c3ccccc3)nc2s1` the figure was 101; with `Nc1ccc(/N=N/c2ccccc2)c(N)n1` [Phenazopyridine hydrochloride], 95.6.
In the case of `CN(C)CCOC(=O)C(c1ccccc1)C1(O)CCCC1` (configuration not stated) [Cyclopentolate hydrochloride], the nuclei count turned out to be 101.
`CCc1cc(Cl)c(OC)c(C(=O)NC[C@@H]2CCCN2CC)c1O` [Eticlopride hydrochloride] showed a nuclei count of 113.
The compound `CC(C)[C@H](O)C(=O)N[C@@H](C)C(=O)N[C@@H]1C(=O)N(C)CCc2ccccc21` returned a nuclei count of 110.
Compound `O=C(NCCCCCCNC(=O)ON=C1CCCCC1)ON=C1CCCCC1` returned a nuclei count of 103.
In turn, `C=CCN1CCc2cc(O)c(O)cc2C(c2ccccc2)C1` (configuration not stated) gave a nuclei count of 103.
As to `OCCN1CCN(CC/C=C2/c3ccccc3Sc3ccc(Cl)cc32)CC1` [Zuclopenthixol dihydrochloride], the nuclei count stood at 99.7.
On to `Cc1[nH]nc2ccc(-c3cncc(OC[C@@H](N)Cc4ccccc4)c3)cc12`, for which the nuclei count turned out to be 24.3.
Compound `Nc1nc(N)c2nc(-c3ccccc3)c(N)nc2n1` [Triamterene] displayed a nuclei count of 92.1.
With `C=C1CC[C@H](O)C/C1=C/C=C1\CCC[C@]2(C)[C@@H]([C@H](C)/C=C/[C@H](C)C(C)C)CC[C@@H]12` [Vitamin D2 (Ergocalciferol)] the figure was 116.
In turn, `C=CC[N+]1([C@H]2C[C@H]3[C@@H]4CC[C@H]5C[C@H](O)[C@@H](N6CCOCC6)C[C@]5(C)[C@H]4CC[C@]3(C)[C@H]2OC(C)=O)CCCC1` [Rocuronium bromide] returned a nuclei count of 97.2.
In turn, `CC(C)(C)NC(=O)[C@H]1CC[C@H]2[C@@H]3CC[C@H]4NC(=O)C=C[C@]4(C)[C@H]3CC[C@]12C` [Finasteride] gave a nuclei count of 103.8 ± 0.73.
With `Cc1ccc(C(=O)N(CCCN)[C@@H](c2oc3cc(Cl)ccc3c(=O)c2Cc2ccccc2)C(C)C)cc1` the figure was 20.5; with `Cn1nnc2c(C(N)=O)ncn2c1=O` [Temozolomide], 99.1 ± 4.6.
With `Cn1nnc2c(C(N)=O)ncn2c1=O` [Methazolastone] the figure was 112; with `O=[N+]([O-])c1cn2c(n1)OC[C@@H](OCc1ccc(OC(F)(F)F)cc1)C2`, 107.
As to `C[C@]12CC[C@H](O)CC1=CC[C@@H]1[C@@H]2CC[C@]2(C)C(c3cccnc3)=CC[C@@H]12` [Abiraterone (CB-7598)], the nuclei count worked out at 109.
On to `COc1ccc(CCC(=O)c2c(O)cc(O[C@@H]3O[C@H](CO)[C@@H](O)[C@H](O)[C@H]3O[C@@H]3O[C@@H](C)[C@H](O)[C@@H](O)[C@H]3O)cc2O)cc1O` [Neohesperidin dihydrochalcone (Nhdc)], for which the nuclei count amounted to 98.7.
`CC(C)(C)CC(C)(C)c1ccc(OCCOCC[N+](C)(C)Cc2ccccc2)cc1` [Benzethonium chloride]: the nuclei count stood at 84.1.
With `CCCCOc1ccc(C(=O)CCN2CCCCC2)cc1` [Dyclonine hydrochloride] the figure was 106; with `COc1ccc(CCC(=O)Nc2nc3ccc(Cl)cc3s2)cc1OC`, 100.
In turn, `COc1ccc(-c2cc3nccn3c(Nc3ncccc3C(N)=O)n2)cc1OC` had a nuclei count of 75.3.
As for `C=C1C(=O)O[C@H]2[C@H]1CC/C(C)=C/CC[C@@]1(C)O[C@@H]21` [Parthenolide], the figure is 72.2 ± 29; as for `Cn1c(N2CCCCS2(=O)=O)nc(C(=O)NCc2ccc(F)cc2)c(O)c1=O`, 98.4.
Take `CC(CN(C)C)CN1c2ccccc2CCc2ccccc21` (configuration not stated) [Trimipramine maleate salt]: the nuclei count was determined as 103.
With `COP(=O)(OC)OC(c1ccc(Cl)cc1)P(=O)(OC)OC` (configuration not stated), the nuclei count was 92.6.
As for `COC(=O)[C@H]1[C@H]2C[C@H]3c4[nH]c5ccccc5c4CCN3C[C@H]2CC[C@@H]1O` [Rauwolscine hydrochloride], the nuclei count is 104.

The values above are taken from the supplement of paper PMC8183993.
